Source: the supplement of paper PMC3334620
Whole data set: some 33,000 sequences, median “E-score (-0.5 to 0.5)” near -0.041, cut for the highest 2% near 0.37. This is one part of the list.

What follows are sequences tested against T1, Ecm22 (UniProt Q05958) (assay: PBM E-score (8-mer binding enrichment) (E-score (-0.5 to 0.5)); higher = stronger / more preferred TF binding; most listed sequences are background and not binding sites). Conditions: protein concentration: 200 nM; construct: GST-full length.
T1 sequence: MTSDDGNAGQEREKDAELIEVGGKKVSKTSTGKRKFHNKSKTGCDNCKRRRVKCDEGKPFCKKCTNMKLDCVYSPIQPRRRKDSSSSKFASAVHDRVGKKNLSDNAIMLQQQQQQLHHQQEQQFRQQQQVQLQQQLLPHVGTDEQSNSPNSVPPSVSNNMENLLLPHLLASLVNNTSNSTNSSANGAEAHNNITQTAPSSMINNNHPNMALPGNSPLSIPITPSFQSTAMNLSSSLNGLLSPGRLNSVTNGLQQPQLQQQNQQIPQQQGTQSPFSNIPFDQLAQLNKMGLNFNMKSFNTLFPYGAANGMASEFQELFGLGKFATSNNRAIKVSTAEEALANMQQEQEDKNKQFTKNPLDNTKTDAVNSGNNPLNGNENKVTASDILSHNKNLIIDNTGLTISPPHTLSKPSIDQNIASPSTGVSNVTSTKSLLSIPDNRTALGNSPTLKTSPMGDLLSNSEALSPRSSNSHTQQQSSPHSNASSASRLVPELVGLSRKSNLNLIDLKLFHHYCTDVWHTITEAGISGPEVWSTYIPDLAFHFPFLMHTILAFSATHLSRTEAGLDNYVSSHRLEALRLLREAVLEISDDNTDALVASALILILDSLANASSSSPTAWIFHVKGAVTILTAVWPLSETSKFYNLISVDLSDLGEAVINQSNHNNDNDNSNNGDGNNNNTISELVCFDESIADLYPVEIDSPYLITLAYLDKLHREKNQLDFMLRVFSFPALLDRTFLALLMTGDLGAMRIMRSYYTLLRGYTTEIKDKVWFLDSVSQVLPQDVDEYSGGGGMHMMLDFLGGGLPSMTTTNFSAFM
Outline: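 Masliner-normalised scans of fluorescent anti-GST signal were the basis for scoring. That signal came from GST-tagged yeast transcription factors applied at about 100-200 nM to double-stranded universal all-10-mer Agilent arrays on fresh or once-stripped slides. Each ungapped eight-base word, pooled with its reverse complement, received an E-score from the Universal PBM Analysis Suite.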

Sequence	PBM E-score
ACGCAAGC	0.0609
TCTTCTAA	-0.0793
ATGATCAC	0.133
GGTCATTA	-0.0468
AACATATT	0.0935
AAACCTAC	-0.0318
ACCCGCAG	-0.0811
CACCGTGA	-0.146
ACGCCGCT	0.0724
AAGCCGCC	-0.191
ACTAAGGG	-0.0514
AGAGTACC	-0.21
CTTCTCTA	-0.353
AATACCTC	0.0681
AGCAGTTA	-0.0915
GGATGAAA	-0.0649
CATGGAAC	-0.0916
CTTCTAGC	-0.0841
CCACTGCC	-0.0201
CTCAAGAA	-0.182
ACAAAAAT	0.0378
AACACCAT	0.00405
ATCTTAGC	-0.191
AGAAGTGA	-0.314
GCATTAAA	-0.00384

Sequence	PBM E-score
AACGCAAA	0.101
ATAACGCG	0.135
CGGCGTAC	0.253
ACTACTCG	0.235
AGATGGCC	-0.148
GATAGCGC	0.0119
CCGAAGGC	-0.06
GCCGGCAA	-0.11
ACCTAGGA	-0.149
AAAGGGAG	-0.0883
CTATTGTA	0.0295
CGCTTGTA	0.144
GAGTCACC	-0.239
ACGCCAGG	0.0457
AACTTACT	-0.0669
GGAATGCC	-0.127
TCATCTCA	-0.176
CAGCTAAC	-0.317
CCGATGTC	0.0725
ACACTGGG	-0.236
ATATCTTA	-0.0263
AATAGGTA	0.0489
AAGTTCTA	-0.128
CGACCTTA	0.198
AAAACCAT	0.00577

Sequence	PBM E-score
AGATGTGC	0.00632
CGGTGGCA	-0.0759
TTATTGAA	-0.0898
TAACGAGA	0.369
GCACCACA	-0.165
AGCACCAG	-0.102
CCGCCTCC	-0.146
CCCATGGA	-0.322
CATTGAAA	-0.0549
GCCGCTAA	-0.136
ATTCATGG	-0.165
AGCTGTAC	0.115
ACCTGCAA	-0.123
CAATTCTA	0.0583
CGCCAAGA	-0.249
ATACATGA	-0.115
GGGTTCCA	-0.202
ACTGCAGG	-0.205
GAGCCCTC	0.0299
CTTCAAGC	-0.283
GTGCTATA	0.0864
CAGAGTTA	-0.19
CGACCGTA	0.353
CCACCCGA	0.0929
ACGATTGA	0.256

Sequence	PBM E-score
ATAGGAAC	0.163
GGTATACA	-0.21
CCGGCCCG	-0.0527
AAACAGAG	-0.0517
ATACCTTG	-0.247
AGGCATAT	0.071
CATTTGCG	0.0603
CTAGCCAA	-0.217
AGTGCGAA	-0.0211
ATCCCTCA	-0.127
AATACTCT	-0.15
AGAATCTC	0.059
TACGTTAA	0.284
CGTACCCA	0.406
GCTCATTA	-0.0727
GTTGGAAA	-0.123
ATTACGGC	0.0778
ATAATTTA	0.152
AGAAGACT	-0.182
ACGTCCAG	-0.212
CTGCATTC	0.0735
CAACACAC	-0.0749
AAGTCGTC	0.139
GACAGAGC	-0.223
GCTACCCA	-0.221

Sequence	PBM E-score
AACTGGGA	-0.217
AGAGGGTC	-0.257
AGGGAAAA	-0.0563
AAAAAGGG	-0.092
AGTGTAGA	-0.064
TACCCCTA	-0.119
AGCCGTTC	0.267
ATATCAAA	0.0161
TAGATCTA	0.0649
GGTCGGAC	0.0643
CGCAAGCG	0.142
CCTCAGGA	-0.184
ACTGGGTG	-0.237
GCTCGCAA	0.244
AAAACCCA	-0.0261
CCTTCTGA	-0.154
ATCTAGAA	-0.0135
ACTCTTTC	-0.196
CGCAGGGA	-0.294
CAGGCCTG	-0.226
ACTCGATG	0.115
ATAAGCCC	-0.136
GGATACGA	0.45
ATGATAAA	0.113
CTTCGTAA	0.413

Sequence	PBM E-score
CCTAATAA	0.1
CATCTAGG	-0.229
CCCCAAAA	-0.0131
ATATACGG	0.441
GTGGGTCA	-0.308
AAGGCAGT	-0.148
AAGGCATA	-0.135
AAGCCGTA	0.247
GAATAGAA	-0.00471
AGACCGAA	0.172
CTGCTAAG	-0.29
ACGCATGG	-0.0301
GATATCGC	0.0915
ACGTACGG	0.362
GCACACGA	0.134
CGAGGGCA	0.215
ATCGCTAA	0.2
ACTTACCG	0.182
GGAGGCAC	-0.238
CACCTGTA	-0.164
ATACAAAG	0.0488
ACACAACG	0.141
ACTAGACC	-0.111
AACTCGCC	0.074
ATCGGTGC	-0.131

Sequence	PBM E-score
AATCATTC	0.0339
AGGCACAG	-0.269
ATCGGTAA	0.277
AGCCTTGA	-0.137
CACGGGCG	-0.186
CTAGGGTC	-0.139
AGTTGCTA	0.0721
CAGACACA	-0.15
CGAATAAA	0.187
CGAGGCAA	0.197
TCACTCGA	0.163
CGTGACGC	0.178
CAAACCCC	-0.204
AATCAGCT	-0.187
AACAGCGT	-0.0225
GTCTCCTA	-0.166
TGCTAGAA	-0.136
CTGAGGCC	-0.166
GAATAAGC	-0.183
ACAAAGAA	0.112
GATAATGC	0.0381
ATTAACTG	0.145
